Data taken from the supplement of paper PMC4967469.
Lines with a small IC50 respond at low doses; fits outside the tested doses are given as limits. AUC, from the same fit, is the share of area under the viability curve across the 256-fold dose range: 1 means no effect, lower means more sensitive. A top dose marked as inferred was calculated from the reported fits.

compound: O=C1NC(=NCc2cccs2)S/C1=C\c1ccc2ncccc2c1 [RO-3306]; test: Viability of human cancer cell lines after 72 h of drug (GDSC screen); details: top dose 5 µM; top dose inferred
Protocol: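 Human cancer cell lines in 384-well plates, medium with 10% serum, drug for 72 h over a 256-fold dose range (nine 2-fold or five 4-fold steps up to the top dose). Adherent lines were fixed and stained with the nucleic acid dye Syto60, suspension lines read with resazurin; signal relative to control wells, capped at 0 and 100%. One two-parameter sigmoid per drug and line, fitted in a mixed model over all curves with the slope shared within a line.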

Row | Cell Line | AUC | IC50 [µM]
1 | HuO-3N1 (osteosarcoma, adherent) | 0.982 | > 5
2 | HuP-T3 (pancreas, adherent) | 0.948 | > 5
3 | HuP-T4 (pancreas, adherent) | 0.978 | > 5
4 | IA-LM (large cell lung carcinoma, adherent) | 0.943 | > 5
5 | IGR-1 (melanoma, adherent) | 0.99 | > 5
6 | IGR-37 (melanoma, adherent) | 0.979 | > 5
7 | IGROV-1 (ovary, adherent) | 0.976 | > 5
8 | IHH-4 (thyroid, semi-adherent) | 0.873 | 3.24
9 | IM-9 (myeloma, suspension) | 0.989 | > 5
10 | IMR-5 (neuroblastoma, adherent) | 0.982 | > 5
11 | IPC-298 (melanoma, adherent) | 0.988 | > 5
12 | IST-MEL1 (melanoma, adherent) | 0.976 | > 5
13 | IST-SL1 (small cell lung carcinoma, semi-adherent) | 0.897 | > 5
14 | IST-SL2 (small cell lung carcinoma, suspension) | 0.989 | > 5
15 | JAR (urogenital system, adherent) | 0.976 | > 5
16 | JEG-3 (urogenital system, adherent) | 0.978 | > 5
17 | JEKO-1 (B-cell lymphoma, suspension) | 0.97 | > 5
18 | JHH-1 (liver, adherent) | 0.934 | > 5
19 | JHH-2 (liver, adherent) | 0.977 | > 5
20 | JHH-4 (liver, adherent) | 0.987 | > 5
21 | JHH-7 (liver, adherent) | 0.98 | > 5
22 | JHOS-2 (ovary, adherent) | 0.948 | > 5
23 | JHOS-3 (ovary, adherent) | 0.982 | > 5
24 | JHOS-4 (ovary, adherent) | 0.947 | > 5
25 | JHU-011 (head and neck, adherent) | 0.858 | 3.99

Row | Cell Line | AUC | IC50 [µM]
26 | JHU-022 (head and neck, adherent) | 0.787 | 2.82
27 | JHU-029 (head and neck, adherent) | 0.94 | > 5
28 | JIMT-1 (breast, adherent) | 0.874 | > 5
29 | JJN-3 (haematopoietic neoplasm, suspension) | 0.987 | > 5
30 | JM1 (B-cell lymphoma, suspension) | 0.991 | > 5
31 | JSC-1 (B-cell lymphoma, suspension) | 0.986 | > 5
32 | JURL-MK1 (chronic myeloid leukaemia, suspension) | 0.985 | > 5
33 | JVM-2 (lymphoid neoplasm, suspension) | 0.979 | > 5
34 | JVM-3 (lymphoid neoplasm, suspension) | 0.941 | > 5
35 | JiyoyeP-2003 (Burkitt lymphoma, suspension) | 0.985 | > 5
36 | Jurkat (T-cell leukaemia, suspension) | 0.992 | > 5
37 | K2 (melanoma, adherent) | 0.978 | > 5
38 | K5 (thyroid, adherent) | 0.956 | > 5
39 | KARPAS-45 (lymphoblastic leukaemia, suspension) | 0.986 | > 5
40 | KARPAS-231 (B-cell leukaemia, suspension) | 0.951 | > 5
41 | KARPAS-299 (anaplastic large cell lymphoma, suspension) | 0.948 | > 5
42 | KARPAS-422 (B-cell lymphoma, suspension) | 0.974 | > 5
43 | KARPAS-620 (haematopoietic neoplasm, suspension) | 0.974 | > 5
44 | KARPAS-1106P (B-cell lymphoma, suspension) | 0.988 | > 5
45 | KATOIII (stomach, semi-adherent) | 0.99 | > 5
46 | KCL-22 (chronic myeloid leukaemia, suspension) | 0.991 | > 5
47 | KE-37 (lymphoblastic leukaemia, suspension) | 0.993 | > 5
48 | KELLY (neuroblastoma, adherent) | 0.926 | > 5
49 | KG-1 (acute myeloid leukaemia, suspension) | 0.987 | > 5
50 | KGN (ovary, adherent) | 0.971 | > 5

Row | Cell Line | AUC | IC50 [µM]
51 | KINGS-1 (glioma, adherent) | 0.971 | > 5
52 | KLE (endometrium, adherent) | 0.964 | > 5
53 | KM12 (large intestine, adherent) | 0.978 | > 5
54 | KM-H2 (Hodgkin lymphoma, suspension) | 0.989 | > 5
55 | KMH-2 (thyroid, adherent) | 0.871 | 3.86
56 | KMOE-2 (acute myeloid leukaemia, suspension) | 0.944 | > 5
57 | KMRC-1 (kidney, adherent) | 0.986 | > 5
58 | KMRC-20 (kidney, adherent) | 0.985 | > 5
59 | KMS-11 (myeloma, suspension) | 0.982 | > 5
60 | KNS-42 (glioma, adherent) | 0.98 | > 5
61 | KNS-62 (lung squamous cell carcinoma, adherent) | 0.968 | > 5
62 | KNS-81-FD (glioma, adherent) | 0.972 | > 5
63 | KON (head and neck, adherent) | 0.811 | 2.58
64 | KOPN-8 (B-cell leukaemia, suspension) | 0.99 | > 5
65 | KP-1N (pancreas, adherent) | 0.986 | > 5
66 | KP-2 (pancreas, adherent) | 0.986 | > 5
67 | KP-3 (pancreas, adherent) | 0.976 | > 5
68 | KP-N-YN (neuroblastoma, adherent) | 0.986 | > 5
69 | KS-1 (glioma, adherent) | 0.962 | > 5
70 | KU812 (chronic myeloid leukaemia, suspension) | 0.986 | > 5
71 | KU-19-19 (bladder, adherent) | 0.953 | > 5
72 | KURAMOCHI (ovary, adherent) | 0.95 | > 5
73 | KY821 (leukaemia, suspension) | 0.988 | > 5
74 | KYAE-1 (oesophagus, suspension) | 0.985 | > 5
75 | KYM-1 (rhabdomyosarcoma, adherent) | 0.95 | > 5

Row | Cell Line | AUC | IC50 [µM]
76 | KYSE-50 (oesophagus, adherent) | 0.986 | > 5
77 | KYSE-140 (oesophagus, adherent) | 0.961 | > 5
78 | KYSE-150 (oesophagus, adherent) | 0.979 | > 5
79 | KYSE-220 (oesophagus, adherent) | 0.983 | > 5
80 | KYSE-410 (oesophagus, adherent) | 0.941 | > 5
81 | KYSE-450 (oesophagus, adherent) | 0.974 | > 5
82 | KYSE-510 (oesophagus, adherent) | 0.958 | > 5
83 | KYSE-520 (oesophagus, adherent) | 0.91 | > 5
84 | L-363 (myeloma, suspension) | 0.984 | > 5
85 | L-428 (Hodgkin lymphoma, suspension) | 0.99 | > 5
86 | L-540 (Hodgkin lymphoma, suspension) | 0.98 | > 5
87 | L-1236 (Hodgkin lymphoma, suspension) | 0.979 | > 5
88 | LAMA-84 (chronic myeloid leukaemia, suspension) | 0.934 | > 5
89 | LAN-6 (neuroblastoma, adherent) | 0.977 | > 5
90 | LB373-MEL-D (melanoma, adherent) | 0.973 | > 5
91 | LB647-SCLC (small cell lung carcinoma, semi-adherent) | 0.968 | > 5
92 | LB771-HNC (head and neck, adherent) | 0.982 | > 5
93 | LB831-BLC (bladder, adherent) | 0.924 | > 5
94 | LB996-RCC (kidney, adherent) | 0.975 | > 5
95 | LB1047-RCC (kidney, adherent) | 0.829 | 3.65
96 | LB2518-MEL (melanoma, adherent) | 0.986 | > 5
97 | LC4-1 (lymphoblastic leukaemia, suspension) | 0.982 | > 5
98 | LC-1-sq (lung squamous cell carcinoma, adherent) | 0.948 | > 5
99 | LC-2-ad (lung adenocarcinoma, adherent) | 0.972 | > 5
100 | LCLC-97TM1 (large cell lung carcinoma, adherent) | 0.961 | > 5
